{"source": "the BET-seq Pho4 binding data (Le et al. 2018)", "note": "This is one part of the list. Values were computed here from the reads of four pooled replicates and scatter widely."}
{"target": "T1, Pho4 (S. cerevisiae) (UniProt P07270)", "T1 sequence": "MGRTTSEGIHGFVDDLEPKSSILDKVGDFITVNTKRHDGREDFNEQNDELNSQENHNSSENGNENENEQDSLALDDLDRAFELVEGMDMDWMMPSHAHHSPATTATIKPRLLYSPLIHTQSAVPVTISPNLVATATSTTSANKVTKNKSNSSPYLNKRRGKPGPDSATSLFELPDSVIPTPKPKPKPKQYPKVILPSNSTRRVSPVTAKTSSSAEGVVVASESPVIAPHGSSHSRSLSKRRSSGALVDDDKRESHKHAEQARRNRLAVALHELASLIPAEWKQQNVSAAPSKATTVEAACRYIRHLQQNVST", "test": "relative binding free energy (BET-seq); higher = weaker binding", "conditions": "reference: library average", "units": {"relative binding free energy": "kcal/mol"}}
{"sequence": "GATTGCACGTGTATAA", "relative binding free energy": 0.16}
{"sequence": "GGACACACGTGGTGGT", "relative binding free energy": 0.01}
{"sequence": "ATCTTCACGTGTGGGT", "relative binding free energy": 0.2}
{"sequence": "GTGATCACGTGGTGGG", "relative binding free energy": 0.06}
{"sequence": "GGTTCCACGTGATCGG", "relative binding free energy": 0.19}
{"sequence": "TGGTTCACGTGGCACT", "relative binding free energy": 0.12}
{"sequence": "TAGCACACGTGTGGGG", "relative binding free energy": 0.08}
{"sequence": "CTTAACACGTGGGGCT", "relative binding free energy": -0.08}
{"sequence": "CTGTTCACGTGGCAGG", "relative binding free energy": 0.29}
{"sequence": "CGTCTCACGTGTGTGG", "relative binding free energy": 0.06}
{"sequence": "CGTGGCACGTGGTGTT", "relative binding free energy": -0.15}
{"sequence": "TTTTCCACGTGTTTAT", "relative binding free energy": 0.14}
{"sequence": "TAAATCACGTGTTTCG", "relative binding free energy": 0.12}
{"sequence": "GCAAGCACGTGTTGTT", "relative binding free energy": -0.11}
{"sequence": "GTATTCACGTGGAGTG", "relative binding free energy": 0.29}
{"sequence": "TTCAGCACGTGTGTGC", "relative binding free energy": -0.02}
{"sequence": "GGGAGCACGTGTACGT", "relative binding free energy": -0.11}
{"sequence": "TCGTTCACGTGTGTTT", "relative binding free energy": 0.29}
{"sequence": "ACATACACGTGTGGGT", "relative binding free energy": 0.06}
{"sequence": "TCTGTCACGTGAGTTG", "relative binding free energy": 0.21}
{"sequence": "GTGTACACGTGTCATG", "relative binding free energy": -0.01}
{"sequence": "GGAAACACGTGTATGT", "relative binding free energy": -0.07}
{"sequence": "TTGGCCACGTGTTTTG", "relative binding free energy": 0.03}
{"sequence": "CGGTGCACGTGTCGTT", "relative binding free energy": 0.05}
{"sequence": "CGTCGCACGTGGGTAG", "relative binding free energy": -0.18}
{"sequence": "GTCGTCACGTGTGTTG", "relative binding free energy": 0.25}
{"sequence": "GAGGGCACGTGTCAGG", "relative binding free energy": -0.11}
{"sequence": "TGGCGCACGTGCGGCG", "relative binding free energy": -0.31}
{"sequence": "AATTACACGTGGTTTA", "relative binding free energy": -0.01}
{"sequence": "GGTGGCACGTGAAAAG", "relative binding free energy": 0.3}
{"sequence": "AGATTCACGTGATTGT", "relative binding free energy": 0.34}
{"sequence": "AATTGCACGTGGAAAG", "relative binding free energy": 0.03}
{"sequence": "GTCGTCACGTGCTGTG", "relative binding free energy": 0.04}
{"sequence": "TCTGTCACGTGTAGGA", "relative binding free energy": 0.25}
{"sequence": "TGGTGCACGTGGGTCA", "relative binding free energy": -0.1}
{"sequence": "GCAGGCACGTGAGGTA", "relative binding free energy": 0.16}
{"sequence": "GTTTGCACGTGTGTGA", "relative binding free energy": 0.18}
{"sequence": "AGTGGCACGTGAATGG", "relative binding free energy": 0.15}
{"sequence": "GGGTACACGTGCTGCG", "relative binding free energy": 0}
{"sequence": "TATTGCACGTGATTAG", "relative binding free energy": 0.18}
{"sequence": "TGTCTCACGTGGATGA", "relative binding free energy": 0.18}
{"sequence": "TTTTACACGTGCCGGG", "relative binding free energy": 0.18}
{"sequence": "GAATGCACGTGATAGG", "relative binding free energy": 0.1}
{"sequence": "TGTGGCACGTGCGTGT", "relative binding free energy": -0.16}
{"sequence": "GGGTCCACGTGCATGG", "relative binding free energy": -0.04}
{"sequence": "ATAGACACGTGGCGGG", "relative binding free energy": -0.18}
{"sequence": "CAGTTCACGTGGTTAT", "relative binding free energy": 0.2}
{"sequence": "AGAGGCACGTGGGATG", "relative binding free energy": -0.11}
{"sequence": "GGGTGCACGTGTGACT", "relative binding free energy": 0.14}
{"sequence": "TTAAGCACGTGGGTTT", "relative binding free energy": -0.2}
{"sequence": "CAGAACACGTGTGGGG", "relative binding free energy": 0}
{"sequence": "TATGCCACGTGTGAGG", "relative binding free energy": -0.08}
{"sequence": "TGGCACACGTGATGGG", "relative binding free energy": 0.08}
{"sequence": "GTGGGCACGTGATACT", "relative binding free energy": 0.02}
{"sequence": "ATCTTCACGTGGGTGC", "relative binding free energy": 0.23}
{"sequence": "GTTTGCACGTGATACG", "relative binding free energy": 0.14}
{"sequence": "TCTGCCACGTGTGTTT", "relative binding free energy": -0.03}
{"sequence": "GTTTGCACGTGTGCGT", "relative binding free energy": 0.07}
{"sequence": "CGATTCACGTGTGTGT", "relative binding free energy": 0.29}
{"sequence": "GGCCGCACGTGGTATT", "relative binding free energy": 0.11}
{"sequence": "TACTTCACGTGAGGTT", "relative binding free energy": 0.43}
{"sequence": "GGGAACACGTGTCTGT", "relative binding free energy": 0}
{"sequence": "GGGTGCACGTGGATCG", "relative binding free energy": 0}
{"sequence": "AGCGTCACGTGAGGAG", "relative binding free energy": 0.25}
{"sequence": "TTAATCACGTGCAGTA", "relative binding free energy": 0.15}
{"sequence": "GGGCGCACGTGATGAT", "relative binding free energy": 0.19}
{"sequence": "GTTGACACGTGTTTAA", "relative binding free energy": 0.02}
{"sequence": "GTGGCCACGTGAAGGT", "relative binding free energy": 0.15}
{"sequence": "CGAGACACGTGTGGCG", "relative binding free energy": 0.2}
{"sequence": "ATATGCACGTGAATCG", "relative binding free energy": 0.3}
{"sequence": "TTCGGCACGTGGCGAT", "relative binding free energy": -0.1}
{"sequence": "GTGCGCACGTGGATTG", "relative binding free energy": 0.03}
{"sequence": "CTGGGCACGTGAGAGG", "relative binding free energy": 0.1}
{"sequence": "CGAGGCACGTGGATGG", "relative binding free energy": -0.16}
{"sequence": "GGGTACACGTGGATGG", "relative binding free energy": 0.08}
{"sequence": "TGGGACACGTGGTTTG", "relative binding free energy": 0.03}
{"sequence": "AAGCGCACGTGGGCTG", "relative binding free energy": -0.2}
{"sequence": "CATTTCACGTGTGTGG", "relative binding free energy": 0.31}
{"sequence": "AAAAGCACGTGGTGGT", "relative binding free energy": -0.11}
{"sequence": "TGTATCACGTGGGGTA", "relative binding free energy": -0.08}
{"sequence": "ATGGACACGTGAGGTT", "relative binding free energy": 0.16}
{"sequence": "TTAGGCACGTGAGCGT", "relative binding free energy": -0.01}
{"sequence": "GAAAACACGTGGGGTG", "relative binding free energy": -0.08}
{"sequence": "ATGGACACGTGTTCTG", "relative binding free energy": -0.12}
{"sequence": "TTGCGCACGTGTACTT", "relative binding free energy": 0.08}
{"sequence": "ATAGTCACGTGCATGG", "relative binding free energy": 0.03}
{"sequence": "TGCGTCACGTGCTTGT", "relative binding free energy": -0.06}
{"sequence": "GTGTCCACGTGTGGGC", "relative binding free energy": 0.05}
{"sequence": "AAGGACACGTGGCAGG", "relative binding free energy": 0}
{"sequence": "TTAGGCACGTGCGGGC", "relative binding free energy": -0.18}
{"sequence": "GGGCTCACGTGTTTGG", "relative binding free energy": 0.17}
{"sequence": "ATGGACACGTGTAGAT", "relative binding free energy": 0.22}
{"sequence": "GGATTCACGTGTCTGG", "relative binding free energy": 0.32}
{"sequence": "AAGGTCACGTGGGGTC", "relative binding free energy": -0.03}
{"sequence": "ATTAACACGTGGATAG", "relative binding free energy": 0.09}
{"sequence": "TTGTCCACGTGGCGGG", "relative binding free energy": -0.07}
{"sequence": "GGAGGCACGTGGGGAG", "relative binding free energy": -0.2}
{"sequence": "CAGTGCACGTGGGGTT", "relative binding free energy": -0.07}
{"sequence": "TGAGGCACGTGCTGTG", "relative binding free energy": -0.14}
{"sequence": "TATGGCACGTGTATAA", "relative binding free energy": -0.14}
{"sequence": "CGGTGCACGTGTCGAG", "relative binding free energy": 0.03}
{"sequence": "ACTTTCACGTGTAATG", "relative binding free energy": 0.26}
{"sequence": "CGAGTCACGTGTTGTA", "relative binding free energy": -0.01}
{"sequence": "GTTTACACGTGGGATC", "relative binding free energy": 0.14}
{"sequence": "ATTGACACGTGTGTGA", "relative binding free energy": 0.01}
{"sequence": "AGTCACACGTGTGTTG", "relative binding free energy": 0.2}
{"sequence": "ATTGGCACGTGTCAAG", "relative binding free energy": -0.06}
{"sequence": "GCAGTCACGTGTGTGA", "relative binding free energy": 0.08}
{"sequence": "TTAAGCACGTGGTATA", "relative binding free energy": -0.28}
{"sequence": "TCTTACACGTGTTCGG", "relative binding free energy": 0.14}
{"sequence": "ATACTCACGTGTGTTA", "relative binding free energy": 0.04}
{"sequence": "TAAGTCACGTGGCTTG", "relative binding free energy": -0.04}
{"sequence": "AATATCACGTGTGCTG", "relative binding free energy": 0.17}
{"sequence": "TTAAACACGTGGGGGC", "relative binding free energy": -0.1}
{"sequence": "TAAAGCACGTGGTAGC", "relative binding free energy": -0.07}
